In PubChem BioAssay AID485344 (National Center for Advancing Translational Sciences (NCATS), 2010):
Screen size: about 340,000 compounds; about 6,900 (2%) were called active. Cut-off read from the data, not from the text of the source: active = inhibition above about 30%; inactive = below that, where a call was filed. The list shows a part of the results, in another mix than the full data. The source gives no active or inactive call for entries shown without one.

target: D(2) dopamine receptor (Homo sapiens) (UniProt P14416); assay: HTS Assay for Allosteric Antagonists of the Human D2 Dopamine Receptor: Primary Screen for Antagonists; conditions: HEK293 TREx D2 cells, calcium flux, dopamine EC80; at 10 µM; stronger effect = higher value; note: 0% is about no effect
Chain of UniProt P14416 (P14416 whole entry, looked up): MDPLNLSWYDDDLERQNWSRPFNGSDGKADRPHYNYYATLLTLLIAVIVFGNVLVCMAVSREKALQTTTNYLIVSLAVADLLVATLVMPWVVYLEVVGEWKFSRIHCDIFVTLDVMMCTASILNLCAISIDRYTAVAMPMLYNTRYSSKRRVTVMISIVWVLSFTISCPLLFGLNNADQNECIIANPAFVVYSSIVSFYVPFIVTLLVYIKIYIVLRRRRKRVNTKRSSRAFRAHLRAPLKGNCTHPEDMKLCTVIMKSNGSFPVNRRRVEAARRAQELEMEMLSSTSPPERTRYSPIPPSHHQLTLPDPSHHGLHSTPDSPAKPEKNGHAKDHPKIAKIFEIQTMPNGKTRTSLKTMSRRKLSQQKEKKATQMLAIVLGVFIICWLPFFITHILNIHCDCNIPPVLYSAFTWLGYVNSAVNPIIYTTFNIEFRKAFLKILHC
Method in brief: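 Measurement of antagonist activity uses fluorescent calcium dye in inducible HEK293 T-REx D2 cells: 10 s baseline, compound addition with 180 s read, EC80 dopamine addition with a further 180 s read.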

| Structure (SMILES) | inhibition |
| --- | --- |
| CCCCNC(=O)N1CCOCCOCCN(C(=O)NCCCC)CCOCCOCC1 | active: 32.3% |
| Cc1cc(C)cc(OCC(=O)NCCc2nc3ccccc3[nH]2)c1 | 7.36% |
| COc1cccc(CC2(CO)CCN(Cc3ccc4cccc(F)c4n3)CC2)c1 | active: 61.6% |
| Cc1ccc(NC(=O)Cc2ccc(-n3c(C)nc4cccnc43)cc2)cc1C | -17.1% |
| Cc1ccccc1NC(=O)CSc1nc(-c2ccccc2C)nc2cc(=O)[nH]n12 | 8.18% |
| COc1ccccc1N(CC(=O)NCCSCc1ccccc1)S(=O)(=O)c1ccc(C)cc1 | -3.1% |
| CCOc1ccc(NC(=O)N2CCN(S(=O)(=O)c3ccc4c(ccn4C)c3)CC2)cc1 | 22.5% |
| COCCNC(=O)Cn1nc(N2CCN(c3ccccc3OC)CC2)ccc1=O | 20% |
| CCc1ccc(C(=O)c2cn(CC(=O)Nc3ccc(F)cc3)c3ccc(OC)cc3c2=O)cc1 | 17.1% |
| CC(=O)N1CCN(c2csc3ccc(F)cc3c2=O)CC1 | -5.9% |
| O=C1CN(C(=O)Cc2ccc(F)cc2)C(c2ccccc2)c2cc(Cl)ccc2N1 (stereo not drawn) | -14.8% |
| COc1ccc(NC(=O)Cn2c(=O)n(C(C)C)c(=O)c3oc4ccccc4c32)cc1Cl | -2.49% |
| CCCN1CCN(CCNC(=O)Nc2ccc(OC)cc2OC)CC1 | 12.2% |
| O=C(CC1C(=O)N(c2ccccc2)C(=O)N1CCC1=CCCCC1)Nc1ccc(F)cc1 (stereo not drawn) | -21.1% |
| Nc1ccc(-c2nc3ncccc3o2)cc1 | active: 32.8% |
| COc1ccc(-c2cc(OC(=O)c3ccc(Cl)cc3)c3c(C)oc(C)c3c(=O)c2)cc1 | -8.07% |
| Cc1ccc(C(=O)Nc2cccc(-c3nc4cccnc4s3)c2C)cc1 | 8.62% |
| Cc1cccc(CN2C(=O)c3ccccc3S(=O)(=O)c3ccc(C(=O)NCCC4=CCCCC4)cc32)c1 | -4.05% |
| COc1cc(NC(=O)c2ccc3c(SCC(=O)O)c4c(nc3c2)CCC4)cc(OC)c1OC | active: 35.7% |
| CCOC(=O)C1CCN(C(=O)CCS(=O)(=O)c2cc3c(cc2Cl)NC(=O)CO3)CC1 | 3.84% |
| Cc1ccc(CSc2ncc(Cl)c(C(=O)NCCc3ccc(S(N)(=O)=O)cc3)n2)cc1 | -9.13% |
| Cc1ccc(N(CC(=O)NCc2ccc(Cl)cc2)S(=O)(=O)N(C)C)cc1 | 13.1% |
| COc1ccc(NC(=O)CSc2nc(-c3ccc(OC)cc3)[nH]c2-c2ccc(OC)cc2)cc1 | 16.1% |
| COc1ccc(OCC(=O)OCc2cc(=O)n3cc(C)sc3n2)cc1 | -1.57% |

| Structure (SMILES) | inhibition |
| --- | --- |
| COc1cc(/C=N\NC(=O)c2ccc(C)nc2)ccc1OC(=O)c1ccco1 | active: 34.4% |
| COc1ccc(NC(=O)c2cc3nc(-c4ccc(C)c(C)c4)cc(C(F)(F)F)n3n2)cc1 | -2.32% |
| COc1ccccc1CNC(=O)c1oc2ccc(S(=O)(=O)N3CCCCC3)cc2c1C | 5.33% |
| CCc1ccccc1NC(=O)c1ccc2c(O)c(S(=O)(=O)c3ccccc3)c(=O)[nH]c2c1 | -2.03% |
| CCOc1ccc(NC(=O)CSc2nccn2Cc2ccco2)cc1 | -8.63% |
| CCOc1ccc2[nH]c(=O)c(CN(CCO)Cc3nnnn3CCc3ccccc3)cc2c1 | active: 38.9% |
| CCOc1ccccc1NC(=O)C(=O)NCCc1sc(-c2cccc(F)c2)nc1C | -1.11% |
| CCC(=O)Oc1ccc(/C=C(\C#N)c2nc3ccccc3[nH]2)cc1OC | 11.9% |
| COc1ccc(-c2cc(C(F)(F)F)nc(S(=O)(=O)CCCC(=O)Nc3cccc(O)c3)n2)cc1OC | -6.9% |
| CCc1ccc(NCc2cc3cc4c(cc3n(CC(=O)Nc3ccc(C)cc3)c2=O)OCO4)cc1 | -4.36% |
| COc1ccccc1N1CCN(C(=S)Nc2ccccc2)CC1 | active: 47.2% |
| CC(=O)c1ccc(NC(=O)CSc2nnc3ccc(-c4ccc(Cl)cc4)nn23)cc1 | -28.6% |
| Cc1ccc(Nc2c(-c3cccs3)nc3nc(C)cc(C)n23)cc1 | 8.49% |
| CCOc1ccc(NC(=O)C2CCCN(S(=O)(=O)c3cccc4nonc34)C2)cc1 (stereo not drawn) | 0.549% |
| CCOc1ccc(NC(=O)NCc2c(-n3cccc3)sc3c2CCCC3)cc1 | 20.5% |
| Cc1oc2ncnc(N3CCCCC3)c2c1C(=O)N1CCN(c2cccc(C(F)(F)F)c2)CC1 | 4.66% |
| CC(C)Sc1oc(-c2cccs2)nc1S(=O)(=O)c1ccc(Cl)cc1 | -4.89% |
| CCc1ccccc1N1C(=O)N(Cc2ccc(C#N)cc2)c2ccccc2S1(=O)=O | 3.49% |
| Cc1ccc(CNC(=O)c2ccc(Cn3c(=O)c4ccccc4n(CC(=O)Nc4ccc(C)cc4C)c3=O)cc2)cc1 | -7.16% |
| CCOc1ccc(S(=O)(=O)NCCc2sc3nc(-c4ccc(F)cc4)nn3c2C)cc1 | -25.2% |
| CCOc1ccc(CCNC(=O)c2cn(CC)c3ccc(S(=O)(=O)N4CCc5ccccc5C4)cc3c2=O)cc1OCC | 0.679% |
| c1ccc(CNc2nc3c(-c4ccccc4)nnn3c3ccccc23)cc1 | 2.79% |
| COc1ccc(SCc2cc(=O)c3cc(Cl)ccc3[nH]2)cc1 | -19.5% |
| COc1cccc(NC(=O)C2CCCN(S(=O)(=O)c3c(C)nn(C)c3C)C2)c1 (stereo not drawn) | -25.4% |

| Structure (SMILES) | inhibition |
| --- | --- |
| Cc1cccc(C)c1OCCn1c(C2CC(=O)N(c3cccc(Cl)c3)C2)nc2ccccc21 (stereo not drawn) | 1.51% |
| O=C(Cc1ccc(Cl)cc1)Nc1ccc2nn(-c3ccc(Cl)cc3)nc2c1 | -7.63% |
| Cc1nc(-c2ccc(F)cc2)c(CC(=O)N(C)CC(=O)Nc2ccc(Br)cc2C)s1 | active: 58.5% |
| O=C(NCc1ccc2c(c1)CCN2C(=O)c1ccc(F)cc1)c1cc2ccccc2[nH]1 | -9.7% |
| Cc1ccc(-n2ncc(C(=O)NCc3ccccc3C)c2-n2cccc2)cc1 | -0.0061% |
| COc1ccccc1CNC(=O)CCC(=O)N1CC2CCCN2c2ccccc21 (stereo not drawn) | 5.9% |
| COc1ccc(-c2[nH]c3ccccc3c2SCCNC(=O)c2cc(OC)c(OC)c(OC)c2)cc1 | 17.1% |
| CCC1CCCCN1C(=O)Cn1c(=O)n(CCCCCC(=O)NCc2ccccc2)c(=O)c2sccc21 (stereo not drawn) | -16% |
| CC(Oc1ccccc1)C(=O)NC1CCN(Cc2ccccc2)CC1 (stereo not drawn) | active: 42.2% |
| COc1cccc(NC(=O)c2ccc3nc(CCc4ccccc4)oc3c2)c1 | -5.03% |
| CCCCNc1nc(Oc2ccc(OCC)nn2)nc(N2CCOCC2)n1 | -3.89% |
| COc1ccc(Cl)cc1NC(=O)c1c(NCc2ccc(C)o2)sc2c1CCCCC2 | 2.15% |
| CCCn1c2ccccc2c2cnn(CC(=O)N(C)c3ccc(F)cc3)c(=O)c21 | 1.29% |
| COc1cccc(CSc2nc3ccccc3c3nc(CCn4c(C)nc5ccccc54)nn23)c1 | -0.248% |
| O=C(Cn1cc(C(=O)c2ccco2)c2ccccc21)Nc1ccc(Br)cc1 | -12.6% |
| O=C(CSc1ccccc1)N1CCc2c([nH]c3ccccc23)C1c1ccc(F)cc1 (stereo not drawn) | -18% |
| CC1CCN(S(=O)(=O)c2cn(CC(=O)Nc3cccc(C(F)(F)F)c3)c(=O)c3ccccc23)CC1 | -4.22% |
| CSc1ncc2c(n1)-c1ccccc1N(Cc1ccc(Cl)cc1)S2(=O)=O | 1.54% |
| CCOC(=O)c1cnn(-c2ccc(C(=O)Nc3cc(OC)c(OC)c(OC)c3)cc2)c1N | 4.75% |
| COc1cccc(C(=O)Nc2cccc(C(=O)OCc3cc(=O)n4nc(C5CC5)sc4n3)c2)c1 | 10.8% |
| O=C(NC1CCCCC1)c1ccc(Cn2c(SCc3ccccc3F)nc3cccnc32)cc1 | 9.53% |
| Nc1c(-c2nc(-c3cccs3)no2)nnn1-c1ccc(Cl)cc1 | -10.3% |
| CCn1c(C(=O)NCCc2ccc(OC)c(OC)c2)cc2sc(Cl)cc21 | -6.69% |
| COC(=O)c1cc2oc3ccccc3c2n1Cc1nc(-c2ccc(OC)cc2)oc1C | -0.22% |

| Structure (SMILES) | inhibition |
| --- | --- |
| Cc1noc(/C=C/c2cccs2)c1S(=O)(=O)N1CCC(C(=O)Nc2ccc(F)c(Cl)c2)CC1 | 6.79% |
| CC(=O)c1ccc(N2CCN(c3ncnc4c3c(-c3ccccc3)cn4-c3cccc(C)c3)CC2)cc1 | -2.21% |
| CCC(=O)N1CCc2cc(Br)cc(S(=O)(=O)N3CCC(C(=O)NCCCOC(C)C)CC3)c21 | 1.32% |
| COc1ccccc1N1CCN(Cc2ccsc2)CC1 | active: 104% |
| CCOC(=O)c1ccc(NC(=O)c2c(-c3c(F)cccc3Cl)noc2C)cc1 | -1.12% |
| Cc1cccc(N2CCN(c3ncnc4c3nc3n4CCCCC3)CC2)c1C | -26.1% |
| N#C[C@]1(S(=O)(=O)c2ccccc2)C[C@@H]2ON=C(c3cccc(Br)c3)[C@@H]2C1 | active: 41.5% |
| CCOc1ccc(NC(=O)c2ccc(NC(=O)N3CCSc4ncccc43)cc2)cc1 | -1.62% |
| COc1ccc(C2CC(=O)c3cc(-c4nc(-c5cccc(Cl)c5)cs4)c(=O)[nH]c3C2)cc1OC (stereo not drawn) | 8.4% |
| COC(=O)c1ccccc1NC(=O)c1ccc(COc2ccccc2Cl)o1 | -0.0416% |
| COc1ccccc1CNC(=O)C1CCCN(c2nc3ccccc3n3cccc23)C1 (stereo not drawn) | 22% |
| CCCCOc1ccc(-c2nn(-c3ccccc3)cc2C2NC(=O)NC(C)=C2C(=O)OC)cc1 (stereo not drawn) | -17.4% |
| O=C(C1CC1)N1CCc2cc(Br)cc(S(=O)(=O)N3CCN(c4cccc(C(F)(F)F)c4)CC3)c21 | -4.13% |
| COc1ccc(Cl)cc1C(=O)Nc1sc2c(c1C(=O)OC(C)C)CCCC2 | -8.63% |
| CC(=O)N1CCc2cc(Br)cc(S(=O)(=O)N3CCN(c4cccc(C(F)(F)F)c4)CC3)c21 | -11.1% |
| O=C(CCCn1c(=O)c2ccccc2n(Cc2cccc(F)c2)c1=O)NC1CCN(Cc2ccccc2)CC1 | active: 39.6% |
| COc1cc(C(CC(=O)NCc2ccc(F)cc2)N2Cc3ccccc3C2=O)cc(OC)c1OC (stereo not drawn) | 10.4% |
| COc1ccc(NC(=O)Cn2c(=O)n(-c3ccc(OC)c(OC)c3)c(=O)c3ccccc32)cc1 | -26.9% |
| CCCCN(C)c1nc2c(S(=O)(=O)c3ccc(CC)cc3)nnn2c2ccc(Cl)cc12 | 1.87% |
| COc1ccccc1NC(=O)C1=C(C)Nc2c(C(=O)Nc3ccc(F)cc3)cnn2C1c1cccc([N+](=O)[O-])c1 (stereo not drawn) | 0.168% |
| CCOC(=O)c1sc(=S)n(-c2ccc(C)cc2)c1SC | active: 47.6% |
